From PubChem BioAssay AID720709 (National Center for Advancing Translational Sciences (NCATS), 2013)
Among all 360,000 compounds or so, about 520 (0.14%) were called active. This list was built around the results that the source calls inconclusive (neither active nor inactive); the mix of calls is not that of the screen. The call rests on the fitted dose curve; in most records, active means well fitted inhibition curve with a large enough effect; inconclusive means small, poorly fitted or top-dose-only effect; inactive means no such curve, though single readings can be large or run the other way. No potency is given beside an inconclusive call; the fits are too rough.

These compounds were tested against Rap guanine nucleotide exchange factor 3 (Homo sapiens) (UniProt O95398) (assay: qHTS for Antagonist of cAMP-regulated guanine nucleotide exchange factor 3 (EPAC1): primary screen). Conditions: EPAC1 GEF assay, Rap1b-BODIPY-GDP exchange fluorescence; activity change, negative = inhibition: at 115 µM (top of the series).
Sequence of UniProt O95398 (O95398 whole entry, looked up): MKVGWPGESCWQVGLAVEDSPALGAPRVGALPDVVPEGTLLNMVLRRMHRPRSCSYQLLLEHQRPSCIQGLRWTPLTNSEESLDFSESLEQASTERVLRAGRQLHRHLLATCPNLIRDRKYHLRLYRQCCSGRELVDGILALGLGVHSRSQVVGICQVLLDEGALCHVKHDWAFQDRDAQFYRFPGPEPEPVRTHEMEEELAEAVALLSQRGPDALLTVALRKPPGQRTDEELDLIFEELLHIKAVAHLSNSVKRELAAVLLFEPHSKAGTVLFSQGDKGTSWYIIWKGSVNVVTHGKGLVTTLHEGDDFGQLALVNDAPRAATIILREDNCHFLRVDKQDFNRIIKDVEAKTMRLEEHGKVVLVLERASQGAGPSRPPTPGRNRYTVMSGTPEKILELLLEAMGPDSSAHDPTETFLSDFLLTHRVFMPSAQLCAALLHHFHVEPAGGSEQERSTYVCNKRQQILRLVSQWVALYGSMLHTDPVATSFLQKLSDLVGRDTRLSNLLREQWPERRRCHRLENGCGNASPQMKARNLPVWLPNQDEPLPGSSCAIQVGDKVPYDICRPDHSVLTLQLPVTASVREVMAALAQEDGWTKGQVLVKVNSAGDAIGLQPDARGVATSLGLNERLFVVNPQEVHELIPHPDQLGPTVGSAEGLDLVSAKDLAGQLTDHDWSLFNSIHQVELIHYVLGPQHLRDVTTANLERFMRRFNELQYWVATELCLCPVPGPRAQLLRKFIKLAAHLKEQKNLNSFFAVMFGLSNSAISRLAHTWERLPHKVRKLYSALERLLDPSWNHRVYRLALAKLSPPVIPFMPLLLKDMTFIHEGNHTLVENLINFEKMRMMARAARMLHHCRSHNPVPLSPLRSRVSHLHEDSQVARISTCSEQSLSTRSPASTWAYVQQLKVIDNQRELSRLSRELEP
Further: nearly all actives have a fitted effect of over 50% in size.
Potency means the concentration at half of the fitted maximal effect; tags describe the fitted curve by direction and shape.
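Wherever activity change, negative = inhibition is given: plate controls were vehicle for no effect and positive control for full effect.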

SMILES | Potency | activity change, negative = inhibition
COc1ccc(C)cc1NC(=O)NC1CCCCCCC1 | inconclusive [inhibitor, single point] | 
CC(=O)Nc1nc(CC(C)C)cc(-c2ccco2)c1C#N |  | inactive: 7.42%
O=C(Nc1sc(-c2ccccc2)cc1C(=O)O)c1ccccc1 | inconclusive [inhibitor, partial curve, poor fit] | 
Cc1ccc(C(=O)N/C(=C\c2ccccc2)C(=O)NCCCn2ccnc2)cc1 |  | inactive: 5.15%
COc1ccc(NC(=O)CN(c2ccccc2OC)S(=O)(=O)c2cccs2)cc1Cl |  | inactive: -25.9%
COc1ccc(/C=C/C(=O)NCC(=O)N/N=C(/C)c2ccco2)cc1 | inconclusive [inhibitor, full curve, poor fit] | 
Cc1nc2ccc(S(=O)(=O)NCC(=O)NCCN3CCCCCC3)cc2s1 | inconclusive [inhibitor, single point] | 
CCOC(=O)C(NC(=O)c1cccc(Cl)c1)(OCc1ccccc1)C(F)(F)F (configuration not stated) | inconclusive [inhibitor, single point] | 
Cc1ccc(OCC(=O)Nc2cccc3ccccc23)c([N+](=O)[O-])n1 | inconclusive [inhibitor, partial curve] | 
COc1cc(C(=O)NC(C)c2ccc3ccccc3c2)cc(Cl)c1O (configuration not stated) | inconclusive [inhibitor, single point] | 
Cc1ccc(/C=C/C(=O)Nc2nnc(SCc3ccc(C#N)cc3)s2)o1 | inconclusive [inhibitor, partial curve] | 
Cc1cccc2cc(C3CC(c4ccco4)=NN3S(C)(=O)=O)c(Cl)nc12 (configuration not stated) | inconclusive [inhibitor, partial curve] | 
CC(=O)N1c2ccc(S(=O)(=O)N3CCC(C(=O)Nc4cccc(C)c4)CC3)cc2CC1C (configuration not stated) | inconclusive [inhibitor, full curve, poor fit] | 
COc1ccc(NC(=O)CSc2sc3c(O)cc(=O)[nH]c3c2C#N)c(OC)c1 | inconclusive [inhibitor, single point] | 
COc1cccc2[nH]c(C(=O)NCCCN3CCCC3=O)cc12 | inconclusive [inhibitor, single point] | 
CCOC(=O)Cn1nc(C)cc1NC(=O)c1ccncc1 | inconclusive [inhibitor, full curve] | 
COc1cccc(NC(=O)Nc2cc(C)ccc2F)c1 | inconclusive [inhibitor, single point] | 
CCCCOC(=O)c1c(C)oc2ccc(NS(=O)(=O)c3ccc4c5c(cccc35)C(=O)N4)cc12 | inconclusive [inhibitor, partial curve] | 
CC(C)[C@H](NC(=O)c1c(F)cccc1F)C(=O)OCC(=O)NNC(=O)c1ccccc1 |  | inactive: 2.21%
O=C(N/N=C/c1coc2ccc(Cl)cc2c1=O)c1cc(O)cc(O)c1 | inconclusive [inhibitor, full curve] | 
CCOc1ccc(-n2c(SCC(N)=O)nc3c([nH]c4ccccc43)c2=O)cc1 | inconclusive [inhibitor, full curve, poor fit] | 

SMILES | Potency | activity change, negative = inhibition
CC(C)CC(C(=O)NC1CCCCC1)N(Cc1ccccc1)C(=O)c1snc(C(N)=O)c1N (configuration not stated) | inconclusive [inhibitor, single point] | 
COc1cccc(NC(=O)c2nn(C)c(C(=O)Nc3cccc(OC)c3)c2[N+](=O)[O-])c1 | inconclusive [inhibitor, partial curve, poor fit] | 
Cc1ccc(-n2c(COc3ccccc3)n[nH]c2=S)cc1 | inconclusive [inhibitor, full curve, poor fit] | 
O=C(O)c1cccc(NS(=O)(=O)c2ccc(-c3ccc(S(=O)(=O)Nc4cccc(C(=O)O)c4)cc3)cc2)c1 |  | inactive: -0.619%
O=C(c1cccc(Cl)c1)N1CCN(c2ccc(N3CCOCC3)nn2)CC1 | inconclusive [inhibitor, single point] | 
Cc1ccc(-c2csc(N=C(N)N)n2)cc1 | inconclusive [inhibitor, full curve, poor fit] | 
CC(=NNC1=NCCN1)c1cnn(C2=NCCN2)c1C |  | inactive: -0.562%
Cc1ccc(NC(=O)CSCC(=O)Nc2ccc(S(=O)(=O)N3CCCC3)cc2)cc1 | inconclusive [inhibitor, single point] | 
CN(Cc1ccccc1)c1ccc(C(CC(N)=O)NC(=O)c2ccc(Br)cc2)cc1[N+](=O)[O-] (configuration not stated) | inconclusive [inhibitor, single point] | 
O=C(Nc1ccccc1Cl)/C(Cl)=C(\Cl)S(=O)c1ccccc1 (configuration not stated) | inconclusive [inhibitor, partial curve] | 
O=C(Nc1cccnc1)c1ccc(COc2ccccc2Cl)o1 |  | inactive: -13.5%
CC/C(O)=C1\C(=O)CC(c2ccccc2)CC1=NCCC(=O)O (configuration not stated) | inconclusive [inhibitor, full curve, poor fit] | 
Cc1ccc2nc(NC(=O)c3ccc(NS(=O)(=O)c4cccs4)cc3)sc2c1 | inconclusive [inhibitor, single point] | 
COc1cc(NS(=O)(=O)c2ccc(NC(=O)/C(=C\c3ccccc3OC)NC(=O)c3ccccc3)cc2)nc(OC)n1 | inconclusive [inhibitor, single point] | 
CCOC(=O)N1CCN(S(=O)(=O)c2ccc(C(=O)Nc3nnc(C)o3)cc2)CC1 | inconclusive [inhibitor, full curve] | 
Cc1ccc(OC(C)C(=O)Nc2ccc(Cl)cn2)c([N+](=O)[O-])n1 (configuration not stated) | inconclusive [inhibitor, partial curve] | 
N/C(=N\S(=O)(=O)c1cc(C(F)(F)F)cc(C(F)(F)F)c1)c1ccc(Cl)cc1 | inconclusive [inhibitor, partial curve] | 
Nc1ccc(C(=O)N2CCN(S(=O)(=O)/C=C/c3ccccc3)CC2)cc1[N+](=O)[O-] | inconclusive [inhibitor, full curve, poor fit] | 
CCCC(=O)Nc1ncnc2c1ncn2[C@@H]1O[C@@H]2COP(=O)(O)O[C@H]2[C@H]1OC(=O)CCC | inactive | 
CC(=O)Oc1ccc2occ(C(=O)c3ccccc3)c2c1 |  | inactive: -13.1%
CCn1c(O)c(/C=N/N=C/c2ccc(OC)cc2)c2cc(C3=NNC(=O)CC3)ccc21 | inconclusive [inhibitor, partial curve, poor fit] | 

SMILES | Potency | activity change, negative = inhibition
O=C(COc1ccccc1Cl)NCCCNC(=O)c1ccco1 |  | inactive: 20.9%
COc1ccc(O)c(/C=N/NC(=O)c2c(C)nnn2-c2nonc2N)c1 | inconclusive [inhibitor, partial curve] | 
CC(C)(C)CC(C)(C)NC(=O)CSCC(=O)Nc1ccc2ccccc2c1 | inconclusive [inhibitor, partial curve] | 
CC1=NN(c2nc(-c3ccc(Cl)cc3)cs2)C(=O)C1 | inconclusive [inhibitor, full curve] | 
COc1ccccc1N1CCN(C(=O)c2ccccc2SCC(=O)N2CCCC2)CC1 |  | inactive: 5.26%
COc1ccccc1NC(=O)c1c(O)c2ccccc2[nH]c1=O |  | inactive: 0.0164%
C[C@H](CO)N1C[C@H](C)[C@@H](CN(C)S(=O)(=O)c2cccs2)Oc2c(NS(=O)(=O)c3ccc(F)cc3)cccc2C1=O | inconclusive [inhibitor, partial curve] | 
COc1ccc(C(CNC(=O)Nc2ccccc2)N2CCN(C)CC2)cc1 (configuration not stated) | inconclusive [inhibitor, partial curve, poor fit] | 
CC(C)=CCC12Oc3cc(O)ccc3C1(O)Oc1cc(O)c([C@H]3C=C(C)CC(c4ccc(O)cc4O)[C@H]3C(=O)c3ccc(O)cc3O)c(O)c1C2=O (some centres not stated) | inconclusive [inhibitor, full curve] | 
CCCSc1nc(C)cc(C)c1S(=O)(=O)c1ccccc1C | inconclusive [inhibitor, partial curve] | 
Oc1ccc(/C=N/N(Cc2ccccc2)c2ccccc2)c(O)c1O | inconclusive [inhibitor, partial curve] | 
Cc1ccccc1S(=O)(=O)N1[C@@H](c2ccc(Br)cc2)C(C(=O)O)=CC[C@H]1c1ccc(Cl)cc1 | inconclusive [inhibitor, single point] | 
C=Cc1ccc(Cn2c(C)c(C(=O)NCc3cccc(C)c3)sc2=O)cc1 | inconclusive [inhibitor, partial curve] | 
CCOc1ccc(Cn2nnc(C(=O)NCc3ccccc3)c2N)cc1 | inconclusive [inhibitor, full curve] | 
COc1cc(C(c2c(C(=O)O)[nH]c3ccccc23)c2c(C(=O)O)[nH]c3ccccc23)ccc1OCc1ccccc1 | active: 39.8 µM | 
O=C1Cc2ccccc2Sc2c(OCCN3CCCCC3)cccc21 |  | inactive: -11%
CCc1ccc(-c2csc(NC(=O)C3CCCO3)c2C(=O)OC(C)C)cc1 (configuration not stated) | inconclusive [inhibitor, partial curve] | 
CCN(CC(=O)Nc1c(F)cccc1F)C(=O)C1COc2ccccc2O1 (configuration not stated) | inconclusive [inhibitor, full curve, poor fit] | 
O=C(Nc1ccc(Br)cc1)c1cccc(S(=O)(=O)Nc2cnc3ccccc3c2)c1 | inconclusive [inhibitor, partial curve, poor fit] | 
COc1cccc(-n2c(SCC(=O)NC3CCCCC3)nc3n[nH]c(C)c3c2=N)c1 | inconclusive [inhibitor, partial curve] | 
